The whole screen tested about 150,000 compounds, of which about 540 (0.36%) showed an effect of 50% or more. The list shows a part of the results.
These molecules were tested on Plasmodium falciparum (assay: Primary screen in NF54 nanoGlo assay, in single point, at 2uM, 72h; a lower Z score goes with more inhibition). Conditions: timepoint 72 hour.
Assay type: functional, Erythrocyte

| SMILES | % Inhibition | Z score |
| --- | --- | --- |
| Cc1cc(C)c(NC(=O)CN2C(=O)CC(c3cccs3)=Nc3cc(C)c(C)cc32)c(C)c1 | -7% | 1.25 |
| COC(=O)[C@H]1CC[C@H](C(=O)Nc2c(Cl)ccc(F)c2C)CC1 | -11% | 0.95 |
| Cc1nc(C)c(C)c(Nc2ccc3c(c2)CC(=O)N3)n1 | 1% | -0.18 |
| CCOCCCNC(=O)N1CCOCC1 | -7% | 1.41 |
| CC[C@H]1CN(CCC(=O)O)Cc2cc(OC)ccc2O1 | 9% | -1.22 |
| CCCn1cc2c3c(cccc31)CN(C(=O)NCCCOC)CC2 | -6% | 0.55 |
| CS(=O)(=O)c1ccc(-c2nc([C@H]3CCOC3)no2)cc1 | -12% | 1.62 |
| CCn1c(=O)n(Cc2cc(-c3ccccc3)on2)c2ccccc21 | -4% | 0.72 |
| Cc1ccc(Nc2nnnc3c2cnn3-c2ccccc2)c(C)c1 | -5% | 0.74 |
| CC[C@H]1Cn2c(C(=O)NC3CCCCC3)cc3c(Cl)ccc(c32)O1 | 31% | -4.44 |
| Cc1ccc(CNc2cc(C(=O)N3CCc4ccccc4C3)cc(S(=O)(=O)N(C)C)c2)cc1 | -5% | 1.01 |
| CCC(=O)[C@@H]1CCCCN1C(=O)OC(C)(C)C | -8% | 0.78 |
| CN(Cc1ccccc1)C(=O)c1cnc(COc2ccc(F)cc2)nc1O | -21% | 2.45 |
| C[C@H](Nc1ccc2c(c1)CCC(=O)N2)c1ncc(-c2ccccc2)o1 | -3% | 0.35 |
| COC(=O)C1C(O)CCCN1C(=O)CC1CC2CCC1C2 (centres undefined) | -3% | 0.29 |
| COc1ccc(NC(=O)CN(Cc2nc(-c3ccccc3)cs2)C(=O)Cn2nnc3ccccc32)c(OC)c1 | -12% | 1.37 |
| Cc1c(S(=O)(=O)N2CCCC2)c(C)n(C)c1C(=O)N1CCc2ccccc21 | -1% | 0.13 |
| O=C(N[C@@H]1[C@@H]2CCO[C@@H]2[C@@H]1C1CCCC1)c1cc(Cl)c[nH]c1=O | 0% | -0.05 |
| CCOc1cc(C(=O)N(C)C[C@@H]2OCCc3ccccc32)on1 | -10% | 1.89 |
| Cc1cc(Br)cc(C)c1OCC(=O)Nc1ccc(C2(c3ccc(NC(=O)COc4c(C)cc(Br)cc4C)cc3)c3ccccc3-c3ccccc32)cc1 | -9% | 1.11 |
| O=C(c1cn(CC(=O)N2CCOCC2)c2ccccc12)C1CC1 | -10% | 1.87 |

| SMILES | % Inhibition | Z score |
| --- | --- | --- |
| CC(=O)N[C@@H]1CCNC[C@@H]1c1nc(-c2ccccc2)no1 | -12% | 1.38 |
| O=C(NC(=O)c1ccc(Cl)cc1Cl)OC[C@@H]1CCCN2CCCCC12 (some centres undefined) | 3% | -0.46 |
| CN(c1ncccc1Cl)[C@H]1CCN(CC(F)(F)F)C1=O | -13% | 1.57 |
| Cn1ccc(-c2noc([C@@H](CN)C3CCCCCC3)n2)cc1=O | -5% | 1.05 |
| CC(C)c1ccc(NC(=O)CCNC(=O)N2CC(=O)Nc3ccccc32)cc1 | 27% | -3.06 |
| Cn1ncc2c(NC[C@H](O)c3cc(Cl)c4c(c3)OCCO4)ccnc21 | -6% | 1.08 |
| CN(CCO)C[C@@H]1CN(C(=O)C2(c3ccccc3)CCCC2)C[C@@H]1CO | -27% | 2.7 |
| Cc1cccc(Cn2cc(N3C(=O)C4CCCCC4C3=O)cn2)c1 (centres undefined) | 16% | -1.94 |
| CCOC(=O)[C@@]1(C(C)C)CCN(Cc2c(C)nn(C)c2C)C1 | 4% | -0.55 |
| CN1C2CCCC1CC(Nc1nc(C3CC3)ns1)C2 (centres undefined) | 6% | -0.7 |
| COCc1c(C(=O)N2CCC3(CC2)C[C@@H]3NC(=O)c2ccncc2)noc1C | -10% | 1.27 |
| Cc1noc(C)c1-c1noc(C=C2CC[C@H](C)C2)n1 | -6% | 0.85 |
| CC(C)N(C)CC(=O)N[C@@H]1CCCC[C@H]1O | -8% | 1.42 |
| O=C1CN(C(=O)c2cc(-c3cccc(Cl)c3)[nH]n2)CCN1 | -12% | 1.12 |
| CC(C)(C(=O)N1CC[C@H](CCO)C1)N1CCCCC1 | 10% | -1.32 |
| COc1ccc(C)cc1S(=O)(=O)C1CS(=O)(=O)CC1N1CCN(c2ccccc2)CC1 (centres undefined) | -5% | 0.69 |
| Cc1cnc(NC(=O)[C@H]2CCC(=O)NC2)s1 | -13% | 2.07 |
| CC(C)(C)OC(=O)N1CC(C(=O)Nc2cccc(C(F)(F)F)c2)C1 | -13% | 1.46 |
| O=S(=O)(c1cc(Cl)ccc1Cl)N1c2ccccc2Oc2nc3ccccc3nc21 | -15% | 1.78 |
| Cc1ccc(S(=O)(=O)NCc2nc(C)c(C)s2)cc1N(C)C | 14% | -2.44 |
| CC(C)=CCC[C@H](C)CN1CCC(CCC(=O)NC2CC2)CC1 | -14% | 2.41 |

From ChEMBL document CHEMBL4888484, “Replenishing the malaria drug discovery pipeline: Screening and hit evaluation of the MMV Hit Generation Library 1 (HGL1) against asexual blood stage Plasmodium falciparum ,using a nano luciferase reporter read-out” (2022)
